Patent US20080025968A1 (YEDA RESEARCH AND DEVELOPMENT, published 2008)

What was measured:
[1] = target: T1, myc-NIK (NIK N-terminally fused to the myc tag) (human, UniProt Q99558 1-947); experiment: western blot of CD70/CD27 receptor complexes (FIG. 6d)
T1 construct: Expressed in HEK293T cells for co-immunoprecipitation, the reporter test and the kinase test; also called myc-tagged NIK; wild type NIK
Method: (§1) Transfections, immunoblotting and immunoprecipitations were performed as described in Example 2 and Example 3 of the Examples section. For immunoprecipitation of the CD70/CD27 ligand-receptor complexes from resting PBMC and Ramos cells, cell lysates were prepared as described for the kinase tests aforementioned and incubated for 4 hours at 4° C. with 25 μl of 50% M2-FLAG agarose beads per ml of lysate. The TNF-receptor complex was precipitated as described (Zhang et al., 2000). The signalosome from cell lysates was immunoprecipitated using a 1:1 mixture of two different antibodies against IKK1 (M-280 and H-744, Santa Cruz). Immunoprecipitation was allowed to continue for 2 hours at 4° C., using 10 μg of anti-IKKα antibodies adsorbed to 25 μl of 50% protein-A-Sepharose beads per ml of lysate.
In NIK− cells, recruitment to the p55 TNF receptor occurred just as effectively as in the wild type cells (FIG. 6c, right panel). In contrast, recruitment of the signalosome components to CD27 was completely abolished (FIGS. 6c, d, left panels). Introduction of the wild type NIK, but not of “kinase-dead” NIK, to the NIK− cells reintated the recruitment in response to CD70 (FIG. 6d, middle and right panels). […] This recruitment could be observed both in cells expressing the wild type enzyme and in those that expressed its “[…]” mutant (FIG. 6d). […]

IKK2, endogenous = target: T2, IKK2, endogenous (human, UniProt O14920 1-756); experiment: western blot of CD70/CD27 receptor complexes (FIGS. 6a-d)
T2 construct: mature; also called IKKβ
T2 sequence (looked up): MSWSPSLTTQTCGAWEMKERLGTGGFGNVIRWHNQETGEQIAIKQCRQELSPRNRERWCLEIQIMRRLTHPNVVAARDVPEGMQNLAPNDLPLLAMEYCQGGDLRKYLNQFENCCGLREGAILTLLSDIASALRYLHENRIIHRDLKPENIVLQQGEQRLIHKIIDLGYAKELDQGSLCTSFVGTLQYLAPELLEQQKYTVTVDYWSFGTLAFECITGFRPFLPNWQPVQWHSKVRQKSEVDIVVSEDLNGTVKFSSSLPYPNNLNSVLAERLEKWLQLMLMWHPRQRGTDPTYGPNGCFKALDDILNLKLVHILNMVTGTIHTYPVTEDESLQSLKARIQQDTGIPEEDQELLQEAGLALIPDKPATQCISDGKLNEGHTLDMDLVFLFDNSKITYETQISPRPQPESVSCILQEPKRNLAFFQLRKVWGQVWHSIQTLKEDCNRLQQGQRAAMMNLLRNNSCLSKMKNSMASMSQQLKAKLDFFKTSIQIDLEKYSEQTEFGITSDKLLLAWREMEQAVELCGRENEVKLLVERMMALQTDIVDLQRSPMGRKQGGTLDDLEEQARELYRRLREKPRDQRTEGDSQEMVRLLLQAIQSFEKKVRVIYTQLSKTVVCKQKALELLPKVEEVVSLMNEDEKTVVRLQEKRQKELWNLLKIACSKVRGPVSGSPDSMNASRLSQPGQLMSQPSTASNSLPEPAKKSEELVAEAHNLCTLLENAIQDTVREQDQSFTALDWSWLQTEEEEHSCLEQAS
Method: as §1

NEMO, endogenous = target: T3, NEMO, endogenous (human, UniProt Q9Y6K9); experiment: as above
T3 construct: mature; also called IKKγ
Method: as §1

IκBα, endogenous = target: T4, IκBα, endogenous (human, UniProt P25963 1-317); experiment: western blot of the CD70/CD27 receptor complex from Ramos cells (FIG. 6a)
T4 construct: mature
T4 sequence (looked up): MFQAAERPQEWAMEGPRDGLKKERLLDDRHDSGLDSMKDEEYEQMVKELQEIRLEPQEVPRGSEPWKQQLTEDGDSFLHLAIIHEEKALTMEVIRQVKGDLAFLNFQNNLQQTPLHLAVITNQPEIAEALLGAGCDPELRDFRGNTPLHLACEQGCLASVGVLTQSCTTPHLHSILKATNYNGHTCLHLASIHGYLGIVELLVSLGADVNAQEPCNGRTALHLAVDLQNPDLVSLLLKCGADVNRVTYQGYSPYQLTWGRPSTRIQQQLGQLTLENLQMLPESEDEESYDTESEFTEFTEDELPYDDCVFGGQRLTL
Method: as §1

p65, endogenous = target: T5, p65, endogenous (human, UniProt Q04206); experiment: as above
T5 construct: mature; also called RelA
Method: as §1

p50, endogenous = target: T6, p50, endogenous (human, UniProt P19838 1-433); experiment: as above
T6 construct: also called NF-κB1 processed form
T6 sequence (looked up): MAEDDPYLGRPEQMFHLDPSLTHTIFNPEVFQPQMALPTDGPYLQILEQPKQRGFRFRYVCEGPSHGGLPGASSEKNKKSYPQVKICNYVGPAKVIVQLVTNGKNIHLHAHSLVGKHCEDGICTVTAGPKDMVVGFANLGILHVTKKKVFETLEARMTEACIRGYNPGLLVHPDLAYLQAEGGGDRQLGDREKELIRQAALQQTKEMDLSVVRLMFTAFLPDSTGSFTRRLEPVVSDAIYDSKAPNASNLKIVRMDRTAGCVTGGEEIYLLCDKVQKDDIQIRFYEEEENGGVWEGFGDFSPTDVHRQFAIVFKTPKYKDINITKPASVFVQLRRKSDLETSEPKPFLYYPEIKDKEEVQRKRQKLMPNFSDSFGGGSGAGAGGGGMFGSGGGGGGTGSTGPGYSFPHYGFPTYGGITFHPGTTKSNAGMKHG
Method: as §1

NF-κB2/p100, endogenous = target: T7, NF-κB2/p100, endogenous (human, UniProt Q00653 1-900); experiment: western blot of the CD70/CD27 receptor complex precipitated from Ramos cells (FIG. 6a)
T7 construct: mature
T7 sequence (looked up): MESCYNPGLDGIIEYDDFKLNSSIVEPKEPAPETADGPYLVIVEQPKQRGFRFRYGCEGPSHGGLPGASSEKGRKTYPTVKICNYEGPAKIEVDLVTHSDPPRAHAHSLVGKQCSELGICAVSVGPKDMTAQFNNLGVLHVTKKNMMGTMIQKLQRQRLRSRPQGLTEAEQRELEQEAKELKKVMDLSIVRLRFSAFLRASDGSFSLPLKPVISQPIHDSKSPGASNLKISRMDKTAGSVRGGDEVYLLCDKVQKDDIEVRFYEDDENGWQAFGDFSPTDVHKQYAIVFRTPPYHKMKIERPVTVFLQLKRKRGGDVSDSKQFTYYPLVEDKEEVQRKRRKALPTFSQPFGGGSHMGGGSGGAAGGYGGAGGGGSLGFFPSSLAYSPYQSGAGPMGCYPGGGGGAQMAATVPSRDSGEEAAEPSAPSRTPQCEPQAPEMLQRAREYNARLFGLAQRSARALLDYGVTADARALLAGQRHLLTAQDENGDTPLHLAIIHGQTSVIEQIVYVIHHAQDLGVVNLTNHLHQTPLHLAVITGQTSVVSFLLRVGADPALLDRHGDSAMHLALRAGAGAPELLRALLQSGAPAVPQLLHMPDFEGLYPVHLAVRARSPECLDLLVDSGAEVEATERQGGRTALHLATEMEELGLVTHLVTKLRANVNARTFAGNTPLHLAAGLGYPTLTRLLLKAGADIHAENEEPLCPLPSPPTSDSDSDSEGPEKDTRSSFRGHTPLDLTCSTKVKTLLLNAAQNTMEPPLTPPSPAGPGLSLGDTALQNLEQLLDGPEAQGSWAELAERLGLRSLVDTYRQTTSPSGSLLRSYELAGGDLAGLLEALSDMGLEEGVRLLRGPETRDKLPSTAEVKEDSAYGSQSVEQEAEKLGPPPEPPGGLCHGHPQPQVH
Method: as §1

IKK1, endogenous = target: T8, IKK1, endogenous (human, UniProt O15111 1-745); experiment: western blot of the CD70/CD27 receptor complex from Ramos cells, 15 min after CD70 (FIG. 5c)
T8 construct: mature; also called IKKα
T8 sequence (looked up): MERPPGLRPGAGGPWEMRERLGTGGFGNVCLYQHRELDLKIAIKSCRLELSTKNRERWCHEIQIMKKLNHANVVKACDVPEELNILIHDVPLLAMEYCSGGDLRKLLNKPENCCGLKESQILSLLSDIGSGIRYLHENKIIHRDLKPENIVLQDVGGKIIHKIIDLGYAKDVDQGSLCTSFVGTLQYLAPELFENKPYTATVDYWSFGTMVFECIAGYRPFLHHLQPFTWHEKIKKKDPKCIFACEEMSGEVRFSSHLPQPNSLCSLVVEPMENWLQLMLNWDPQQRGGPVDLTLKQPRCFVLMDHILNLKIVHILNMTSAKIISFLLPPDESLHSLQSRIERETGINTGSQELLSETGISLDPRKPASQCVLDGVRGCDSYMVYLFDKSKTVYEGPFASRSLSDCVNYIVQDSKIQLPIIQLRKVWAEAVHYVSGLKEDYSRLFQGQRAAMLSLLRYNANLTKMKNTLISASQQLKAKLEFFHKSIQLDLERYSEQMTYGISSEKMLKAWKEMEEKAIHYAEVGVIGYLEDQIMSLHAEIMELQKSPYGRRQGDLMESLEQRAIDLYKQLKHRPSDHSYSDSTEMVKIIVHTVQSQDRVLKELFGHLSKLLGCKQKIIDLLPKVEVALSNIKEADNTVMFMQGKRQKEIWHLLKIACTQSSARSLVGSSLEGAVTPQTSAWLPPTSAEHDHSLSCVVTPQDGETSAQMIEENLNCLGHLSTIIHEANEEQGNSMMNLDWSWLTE

B1: CD27, endogenous on Ramos cells and PBMC (receptor)
chain: not shown
notes: whole, on cells; Receptor complexes were precipitated from cell lysates through the FLAG-tagged CD70 ligand; also called CD27 receptor
Question: Does B1 bind [1]?
Answer: binds

Question: Does B1 bind (IKK2, endogenous)?
Answer: binds

Question: Does B1 bind (NEMO, endogenous)?
Answer: binds

Question: Does B1 bind (IκBα, endogenous)?
Answer: binds

Question: Does B1 bind (p65, endogenous)?
Answer: binds

Question: Does B1 bind (p50, endogenous)?
Answer: binds

Question: Does B1 bind (NF-κB2/p100, endogenous)?
Answer: no binding

Question: Does B1 bind (IKK1, endogenous)?
Answer: binds
